Test [1] has as its target GFP-SLX4IP (pcDNA5-FRT/TO-GFP-SLX4IP-FL) (human) (UniProt Q5VYV7). Nature of the test: co-IP; GFP-Trap co-IP from whole-cell extracts of HEK293 cells transiently expressing GFP constructs; for Figure 5F cells transfected with siCTRL or siSLX4; lysis buffer 50 mM HEPES-KOH pH 8.0, 100 mM KCl, 2 mM EDTA, 0.5% NP-40 substitute, 4°C.
Test [2] has the same target. Nature of the test: co-IP; GFP-Trap co-IP, lysates treated with Benzonase (1000 U/ml, lysis buffer without EDTA, with 10 mM magnesium chloride, 1 h 45 min in the cold) or not; wild type and SIM mutants of SLX4IP (Figure S7D).
Test [3] has the same target. Nature of the test: co-IP; GFP-SLX4IP precipitated from siCTRL and siSLX4 U2OS cells (Figure S7E).
Test [4] deals with GFP-BLM (EGFP-C1-GFP-BLM) (UniProt P54132). Nature of the test: co-IP; GFP-Trap co-IP from whole-cell extracts of HEK293 cells transiently expressing GFP constructs; for Figure 5F cells transfected with siCTRL or siSLX4; lysis buffer 50 mM HEPES-KOH pH 8.0, 100 mM KCl, 2 mM EDTA, 0.5% NP-40 substitute, 4°C.
The target in a further test is recombinant Flag-BLM (UniProt P54132). Nature of the test: co-IP; recombinant Flag-BLM and SLX4IP mixed, BLM immunoprecipitation, normal IgGs as negative control; the text calls it a pull-down assay; both purified.
Test [5] has as its target GFP-SLX4IP (pcDNA5-FRT/TO-GFP-SLX4IP-FL) (human) (UniProt Q5VYV7). Nature of the test: co-IP; immunoprecipitation of GFP-SLX4IP (GFP-Trap_MA) from U2OS Flp-In T-REx cells with stably integrated GFP-SLX4IP, doxycycline-induced, synchronised in G1 (lovastatin), S (double thymidine), G2 (RO-3306) or M (nocodazole).
Test [6] deals with T1, GFP-SLX4IP V115K/V116K (human) (UniProt Q5VYV7).
T1 sequence: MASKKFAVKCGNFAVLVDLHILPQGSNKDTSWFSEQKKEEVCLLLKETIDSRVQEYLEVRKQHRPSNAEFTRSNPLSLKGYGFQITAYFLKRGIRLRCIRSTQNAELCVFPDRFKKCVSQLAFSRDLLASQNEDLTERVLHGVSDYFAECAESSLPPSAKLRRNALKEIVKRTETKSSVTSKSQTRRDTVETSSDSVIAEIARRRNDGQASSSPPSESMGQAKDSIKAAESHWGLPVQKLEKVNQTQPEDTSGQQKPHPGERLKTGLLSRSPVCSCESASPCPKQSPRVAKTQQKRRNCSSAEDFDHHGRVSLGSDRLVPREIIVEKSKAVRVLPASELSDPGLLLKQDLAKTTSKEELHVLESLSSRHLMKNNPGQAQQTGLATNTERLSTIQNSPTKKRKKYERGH
Nature of the test: co-IP; SLX4IP point mutants L16K/V17K and V115K/V116K, blots for SLX4, SLX1, MUS81 and XPF; cell line not told in the text shown (Figure S3D).

Sequences of proteins named here, by UniProt entry; tags and fusion partners are left off.
UniProt P54132: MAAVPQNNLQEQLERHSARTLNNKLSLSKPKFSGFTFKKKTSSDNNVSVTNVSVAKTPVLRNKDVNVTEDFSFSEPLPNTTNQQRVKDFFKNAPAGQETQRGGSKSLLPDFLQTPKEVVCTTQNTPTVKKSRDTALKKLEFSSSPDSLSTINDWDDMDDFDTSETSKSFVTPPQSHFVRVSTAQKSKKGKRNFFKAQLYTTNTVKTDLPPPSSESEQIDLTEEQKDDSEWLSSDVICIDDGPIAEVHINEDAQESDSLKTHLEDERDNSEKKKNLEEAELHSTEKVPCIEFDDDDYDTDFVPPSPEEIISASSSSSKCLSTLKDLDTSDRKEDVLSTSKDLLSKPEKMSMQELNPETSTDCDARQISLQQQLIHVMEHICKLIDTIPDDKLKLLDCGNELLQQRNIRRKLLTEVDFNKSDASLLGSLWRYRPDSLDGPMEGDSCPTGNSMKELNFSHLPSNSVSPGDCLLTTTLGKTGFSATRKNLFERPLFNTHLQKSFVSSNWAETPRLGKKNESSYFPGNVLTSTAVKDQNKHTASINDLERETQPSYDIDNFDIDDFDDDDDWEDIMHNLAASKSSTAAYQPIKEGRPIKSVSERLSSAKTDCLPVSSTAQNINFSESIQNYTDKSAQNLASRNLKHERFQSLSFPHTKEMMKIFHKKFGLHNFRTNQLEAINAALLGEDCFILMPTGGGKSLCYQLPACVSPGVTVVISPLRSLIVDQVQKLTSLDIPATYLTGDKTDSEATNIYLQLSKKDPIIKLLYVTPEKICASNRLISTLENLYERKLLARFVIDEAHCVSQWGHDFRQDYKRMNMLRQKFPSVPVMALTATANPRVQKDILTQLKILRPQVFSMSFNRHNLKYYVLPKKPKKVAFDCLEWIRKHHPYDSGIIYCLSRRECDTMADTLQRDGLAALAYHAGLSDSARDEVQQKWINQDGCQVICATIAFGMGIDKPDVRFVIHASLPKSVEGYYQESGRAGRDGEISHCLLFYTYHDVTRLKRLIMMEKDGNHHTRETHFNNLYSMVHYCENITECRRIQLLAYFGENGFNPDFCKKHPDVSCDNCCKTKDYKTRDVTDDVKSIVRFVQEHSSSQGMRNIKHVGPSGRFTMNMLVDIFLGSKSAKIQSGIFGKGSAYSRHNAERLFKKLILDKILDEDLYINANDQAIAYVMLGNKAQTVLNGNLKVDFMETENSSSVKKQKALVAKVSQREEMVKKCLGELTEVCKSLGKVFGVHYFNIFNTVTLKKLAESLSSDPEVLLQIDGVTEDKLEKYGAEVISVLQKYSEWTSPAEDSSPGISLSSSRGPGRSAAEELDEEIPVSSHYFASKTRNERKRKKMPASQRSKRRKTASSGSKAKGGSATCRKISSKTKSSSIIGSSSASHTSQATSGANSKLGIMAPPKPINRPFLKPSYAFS

Test [7] concerns the target T2, GFP-SLX4IP L16K/V17K (human) (UniProt Q5VYV7).
T2 sequence: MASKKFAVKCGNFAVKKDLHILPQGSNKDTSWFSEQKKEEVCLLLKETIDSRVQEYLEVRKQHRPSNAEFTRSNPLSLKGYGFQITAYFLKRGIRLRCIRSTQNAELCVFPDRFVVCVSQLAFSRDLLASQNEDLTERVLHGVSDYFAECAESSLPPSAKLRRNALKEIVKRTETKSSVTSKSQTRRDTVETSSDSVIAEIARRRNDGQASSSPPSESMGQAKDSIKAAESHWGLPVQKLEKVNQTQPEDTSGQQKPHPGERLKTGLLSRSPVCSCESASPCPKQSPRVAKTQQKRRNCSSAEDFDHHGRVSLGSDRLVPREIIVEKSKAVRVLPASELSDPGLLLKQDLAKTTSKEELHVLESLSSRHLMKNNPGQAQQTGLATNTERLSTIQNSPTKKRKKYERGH
The test is described as above.

No constants are given. Whether binding was seen depends on the method and setting. For part of these data: In cells and extracts the contact can be indirect. Some binding calls cover weakened binding; strength is not graded here. For part of these data: Where a sequence is shown, tags or fusion partners need not be part of it.

Our source for the binding values is article PMC6863466.

Regarding “endogenous BLM (from UniProt P54132 1-1417)”, the binding entry in test [1], in test [2] and in test [3] was “binds” each time. For the molecule “endogenous SLX4IP (from UniProt Q5VYV7 1-408)”, the binding result in test [4] is listed as “binds”.

Consider “recombinant SLX4IP (from UniProt Q5VYV7 1-408)”, for which the binding entry with recombinant Flag-BLM is “binds”.

B1: MUS81 (protein, UniProt Q96NY9 1-551)
chain: MAAPVRLGRKRPLPACPNPLFVRWLTEWRDEATRSRRRTRFVFQKALRSLRRYPLPLRSGKEAKILQHFGDGLCRMLDERLQRHRTSGGDHAPDSPSGENSPAPQGRLAEVQDSSMPVPAQPKAGGSGSYWPARHSGARVILLVLYREHLNPNGHHFLTKEELLQRCAQKSPRVAPGSARPWPALRSLLHRNLVLRTHQPARYSLTPEGLELAQKLAESEGLSLLNVGIGPKEPPGEETAVPGAASAELASEAGVQQQPLELRPGEYRVLLCVDIGETRGGGHRPELLRELQRLHVTHTVRKLHVGDFVWVAQETNPRDPANPGELVLDHIVERKRLDDLCSSIIDGRFREQKFRLKRCGLERRVYLVEEHGSVHNLSLPESTLLQAVTNTQVIDGFFVKRTADIKESAAYLALLTRGLQRLYQGHTLRSRPWGTPGNPESGAMTSPNPLCSLLTFSDFNAGAIKNKAQSVREVFARQLMQVRGVSGEKAAALVDRYSTPASLLAAYDACATPKEQETLLSTIKCGRLQRNLGPALSRTLSQLYCSYGPLT
On to B1, for which, in test [5], the binding entry is “binds”.

B2: SLX1 (protein, UniProt Q9BQ83 1-275)
chain: MGPAGVAARPGRFFGVYLLYCLNPRYRGRVYVGFTVNTARRVQQHNGGRKKGGAWRTSGRGPWEMVLVVHGFPSSVAALRFEWAWQHPHASRRLAHVGPRLRGETAFAFHLRVLAHMLRAPPWARLPLTLRWVRPDLRQDLCLPPPPHVPLAFGPPPPQAPAPRRRAGPFDDAEPEPDQGDPGACCSLCAQTIQDEEGPLCCPHPGCLLRAHVICLAEEFLQEEPGQLLPLEGQCPCCEKSLLWGDLIWLCQMDTEKEVEDSELEEAHWTDLLET
Consider B2, for which the binding result in test [6] is “no binding”; in test [7] it was “no binding”; in test [5], “binds”.
